Source: PMC12136788
The other results are listed elsewhere or left out.

B1: ENSG00000175215:stop:overlap|stop_codon|ENSG00000175215|stop_codon|NA|stop_codon (ssRNA)
RNA: GGGAGUUCUACAGUCCGACGAUCUUGAGGAGCUGAGCGGAGCAGAGGACGUCUACACCAGCCUUGGGCAGCUGCGGGCCCCUUAGCCUGCCCUGCUUCCAAGCGACGGCCAUCCCAGUAGGGGACUUUCCCACACUGUGCCUUCAACAGAGGAUUGAGCAUCA
B2: chr17:58090057:58090109:+|3pUTR|ENSG00000264364|msi1_unk|FALSE|overlapping (ssRNA)
RNA: GGGAGUUCUACAGUCCGACGAUCGGGUAGGAUUAGCUUGAAUCUUUUUUUUCUUUACAUUUUUCUCCUGUCUGCUCCCUGCUUAGCCCUCAGUUUCCUCAUUCCUCUGGAGUUCUCUUAGAGCAGCCCCUGUUGUUAGUUGGCCAACAGAGGAUUGAGCAUCA
B3: chr17:43640388:43641946:-|three_prime_utr|ENSG00000005102|control|control|control (ssRNA)
RNA: GGGAGUUCUACAGUCCGACGAUCCCUCUCCACAUCUUUCCCUGACUCUUGGAUAUGAAACUGCCCAGCAUUCCUGGGAGUCUUAGGAUUUUCUAGGAAGUUCUGUCCAGCCUCUUAGCAGCCUCUUCCCUAGGGCCUUUGCUCCAACAGAGGAUUGAGCAUCA
B4: ENSG00000198589:be:win_5351|CDS|ENSG00000198589|bound_else_gene|NA|bound_elsewhere_windowed (ssRNA)
RNA: GGGAGUUCUACAGUCCGACGAUCAUUCAGUUUCACAAGAUCCGGUUUCAAAUAUGAGUAUUACAGAGAGGCUUGAACACGCUUUGGAAAAGGCAGCUCCUCUCCUUCGUGAGAUUUUUGUGGAUUUUGCACCUUUUCUUUCUCCAACAGAGGAUUGAGCAUCA
B5: chr3:100728682:100728848:+|CDS|ENSG00000114354|unk|FALSE|unique (ssRNA)
RNA: GGGAGUUCUACAGUCCGACGAUCUAAUGGCCAGCCAAGACCCCUUGAAUCAAGUCAGGUGAAAUAUCUCCGUCGAGAACUGAUAGAACUUCGAAAUAAAGUGAAUCGUUUAUUGGAUAGCUUGGAACCACCUGGAGAACCAGGCAACAGAGGAUUGAGCAUCA
B6: chr5:128187618:128187661:+|3pUTR|ENSG00000064651|msi1_unk|total|mutant (ssRNA)
RNA: GGGAGUUCUACAGUCCGACGAUCUCCUUUAUAAGUCAUUAAAAUAAUGUUUCAUCAAAUGGUUAAAUGGACCACUGGUUUCUCCGAGAAAUGUUUUCCGGCUUAAUUCAUUCAAUUGUCAAGUACACUCCGUCUUAAUACACUCAACAGAGGAUUGAGCAUCA

Target: MSI1 full-length (mouse, UniProt Q61474 1-362)
Sequence of UniProt Q61474 (Q61474 whole entry): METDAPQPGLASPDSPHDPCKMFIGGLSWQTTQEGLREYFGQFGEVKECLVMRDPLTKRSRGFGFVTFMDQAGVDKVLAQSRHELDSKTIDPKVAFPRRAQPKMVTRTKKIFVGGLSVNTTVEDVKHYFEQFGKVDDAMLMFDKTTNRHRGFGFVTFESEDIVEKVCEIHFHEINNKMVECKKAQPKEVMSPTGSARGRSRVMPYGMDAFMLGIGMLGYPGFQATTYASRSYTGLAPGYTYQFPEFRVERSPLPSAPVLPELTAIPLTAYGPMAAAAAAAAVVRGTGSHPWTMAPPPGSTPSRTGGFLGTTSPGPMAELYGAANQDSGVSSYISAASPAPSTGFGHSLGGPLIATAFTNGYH
Assay: nsRBNS (natural sequence RNA bind-n-seq); RBNS binding buffer (assumed for nsRBNS): 25 mM Tris pH 7.5, 150 mM KCl, 3 mM MgCl2, 0.01% Triton X-100, 500 ug/ml BSA, 20 U/ml SUPERase-In, 4 C; UNK is unkempt and MSI1 is Musashi-1; names of the RNAs are library labels; protein concentration not given here; high values mean tight binding

Binder	binding signal [enrichment R]
B1	0.404
B2	4.46
B3	0.806
B4	0.391
B5	0.576
B6	0.917
